# In PubChem BioAssay (NCATS):
# Several values for one entry are separate records, joined by “and”; a condition that tells them apart may be missing. Equal entries are not always repeated. Inconclusive results, whose numbers are uncertain, are shown with a selection of clear calls. Potencies of inconclusive entries are doubtful fits and often do not repeat. Activity calls are given as the source filed them. Calls follow the shape of the dose curve; as a rule, active = well fitted inhibition curve with a large enough effect; inconclusive = small, poorly fitted or top-dose-only effect; inactive = flat fitted curve, though single readings scatter.
# How the values were obtained:
# [1] = tested on: HaCat; assay: Cytotoxic Profiling of Annotated Libraries Using Quantitative High-Throughput Screening (AID 1296008); details: Five cell lines viability, CellTiter-Glo ATP luminescence, 48-72 h; max response: hits give low values; also: nearly all actives have a fitted effect of over 60% in size; as to max response: % is scaled to controls: 0 for no effect and ±100 for the full control effect
# Outline: (§1)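 Cells exposed to compounds for 48 or 72 hr at 37 degrees Celsius. Viability read as ATP-coupled luminescence with CellTiter-Glo after 10 min at room temperature.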
# [2] = tested on: KB-3-1; assay: as above; details: Five cell lines viability, CellTiter-Glo ATP luminescence, 48-72 h; max response: hits give low values
# Outline: as §1
# [3] = tested on: NIH3T3; assay: as above; details: Five cell lines viability, CellTiter-Glo ATP luminescence, 48-72 h; max response: hits give low values
# Outline: as §1
# [4] = Drug repurposing screens with cells derived from glioblastoma tumor samples (AID 1345199); details: GBM patient neurospheres viability, ATP luminescence, 48 h; Potency: tumour line A unless noted; series mostly up to 46 µM; also: nearly all actives have a fitted effect of over 40% in size
# Outline: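 Primary testing used CD133+ neurospheres from four GBM patients, seven concentrations, 48 h exposure and ATP-based viability; confirmation added three slower-growing patient lines.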
# Potency is read from the fitted curve at half-maximal effect; tags tell the direction and shape of the fitted curve.
structure (smiles),measurement,setting,value
C[C@H]1O[C@@H](O[C@H]2C[C@@H](O)[C@]3(CO)C4C(CC[C@]3(O)C2)[C@@]2(O)CC[C@H](C3=CC(=O)OC3)[C@@]2(C)C[C@H]4O)[C@@H](O)[C@@H](O)[C@H]1O (stereo not given in full),Potency,[1],active: 0.968 µM
C[C@H]1O[C@@H](O[C@H]2CC[C@]3(C=O)C4CC[C@]5(C)[C@@H](C6=CC(=O)OC6)CC[C@]5(O)[C@@H]4CC[C@]3(O)C2)C[C@@H](O)[C@@H]1O (stereo not given in full),Potency,[1],active: 0.502 µM
CC(=O)OC12C(O)C(C)C3(O)C4C=C(C)C(=O)C4CC(CO)=CC3C1C2(C)C (stereo not given),max response,[1],inactive: -13.8%
CC(O)(CS(=O)(=O)c1ccc(F)cc1)C(=O)Nc1ccc(C#N)c(C(F)(F)F)c1 (stereo not given),outcome,[1],inactive
COC1CC(O[C@H]2CC[C@]3(C)C4CC[C@]5(C)[C@@H](C6=CC(=O)OC6)[C@@H](OC(C)=O)C[C@]5(O)C4CC[C@@H]3C2)OC(C)C1O (stereo not given in full),Potency,[1],active: 0.796 µM
C=C1C2(C)CC3C(C)(O)C4=CC(=O)OC(C)(C)C4=CCC3(C)C13C(=O)OC(C)C3(O)C2=O (stereo not given),Potency,[1],"inconclusive: 0.0893 µM [inhibitor, full curve, poor fit]"
C=CCC1(C(C)CC)C(=O)NC(=O)NC1=O (stereo not given),max response,[1],inactive: 2.69%
CCC1CC2CN3CCc4c([nH]c5ccccc45)C(C(=O)OC)(C2)C13 (stereo not given),Potency,[1],"inconclusive: 11.4 µM [inhibitor, single point]"
C[C@@H]1CC2=CC(=O)CC[C@@H]2[C@H]2CC[C@@]3(C)[C@@H](CC[C@]3(C)O)[C@@H]21,max response,[1],inactive: -11%
C/C(=C\c1csc(C)n1)[C@@H]1C[C@@H]2O[C@@H]2CCC[C@H](C)[C@H](O)[C@@H](C)C(=O)C(C)(C)[C@@H](O)CC(=O)O1,Potency,[1],"inconclusive: 0.0041 µM [inhibitor, full curve, poor fit]"
O=C(N[C@H]1N=C(c2ccccc2F)c2cccc3c2N(CC3)C1=O)c1cc2ccccc2[nH]1,Potency,[1],"inconclusive: 29.1 µM [inhibitor, single point]"
COc1ccc(CCNCc2ccc(OC)c3ccccc23)cc1,Potency,[1],"inconclusive: 29.1 µM [inhibitor, single point]"
CC(=O)O[C@@]12CO[C@H]1C[C@H](O)[C@@]1(C)C(=O)[C@H](O)C3=C(C)[C@@H](O)C[C@@](O)([C@@H](OC(=O)c4ccccc4)[C@@H]21)C3(C)C,Potency,[1],"inconclusive: 11.8 µM [inhibitor, single point]"
CC(=O)NCCCOc1ccc(C(=O)N2CCC(N3C(=O)CCc4ccccc43)CC2)cc1,Potency,[1],"inconclusive: 20.6 µM [inhibitor, single point]"
CN1CCN(c2ccc([N+](=O)[O-])c3no[n+]([O-])c23)CC1,max response,[1],inactive: 4.94% and inactive: 1.91%
OCCCCC#Cc1cncc(OC[C@@H]2CCN2)c1,outcome,[1],inactive
CCCC[N+]1(C)[C@H]2CC(OC(=O)[C@H](CO)c3ccccc3)C[C@H]1[C@H]1O[C@H]12 (stereo not given in full),outcome,[1],inactive
CC(=O)OC[C@]12C[C@H](OC(=O)CC(C)C)C(C)=C[C@H]1O[C@@H]1[C@H](O)[C@@H](O)[C@@]2(C)[C@]12CO2,Potency,[1],active: 0.252 µM
C[C@]12CC[C@H]3[C@@H](CCC4=CC(=O)CC[C@@H]43)[C@@H]1CC[C@@H]2OC(=O)CCc1ccccc1,max response,[1],inactive: 1.58%
C[C@]12CC[C@H](O)C[C@H]1CC[C@@H]1[C@@H]2[C@H](O)C(=O)[C@]2(C)[C@@H](c3ccc(=O)oc3)CC[C@]12O,Potency,[1],active: 0.13 µM
CC(C)c1c(CN(C)C(C)Cc2ccccc2)n(C)n(-c2ccccc2)c1=O (stereo not given),Potency,[1],"inconclusive: 29.9 µM [inhibitor, single point]"
CC(C)=CC1C(C(=O)OCN2C(=O)C3=C(CCCC3)C2=O)C1(C)C (stereo not given),outcome,[1],inactive
O=C(Nc1ccccc1-c1ccc(Cl)cc1)c1cccnc1Cl,Potency,[1],"inconclusive: 0.344 µM [inhibitor, full curve, poor fit]"
CN(Cc1cccc(-c2ccncc2)c1)C(=O)Oc1ccc(-c2ccc(C(N)=O)cc2)cc1,outcome,[1],inactive
COC(=O)C1(C)CCC(=O)C2(C)c3c(O)cc(C(C)C)cc3C(O)C(OC(C)=O)C12 (stereo not given),max response,[1],inactive: -0.878%
COC(=O)N1CCN(C(=O)Cc2ccc(Cl)c(Cl)c2)[C@@H](CN2CCCC2)C1,max response,[1],inactive: -8.83%
C=C(C)[C@@H]1[C@H]2OC(=O)[C@H]1[C@]1(O)C[C@H]3O[C@]34C(=O)O[C@H]2[C@]14C,Potency,[1],"inconclusive: 23.1 µM [inhibitor, partial curve, poor fit]"
COc1ccc(C23CCC(=O)C=C2N(C)CC3)cc1OC (stereo not given),Potency,[1],"inconclusive: 23.1 µM [inhibitor, partial curve, poor fit]"
Nc1ccccc1C(=O)OCC(O)CO (stereo not given),Potency,[1],"inconclusive: 33.5 µM [inhibitor, partial curve, poor fit]"
COC(=O)C12C(=O)C(C)(O)C(=O)C1(C)C(C)=CC1C34CCC(OC3=O)C(C)(C)C4CCC12C (stereo not given),Potency,[1],"inconclusive: 11.2 µM [inhibitor, partial curve, poor fit]"
N#Cc1cn([C@@H]2O[C@H](CO)[C@H](O)[C@@H]2O)c2ncnc(N)c12,Potency,[1],active: 0.092 µM
CCC1(CC)C(=O)C=CNC1=O,max response,[1],inactive: -9.12%
O=[N+]([O-])/N=C1\NCCN1Cc1ccc(Cl)nc1,max response,[1],inactive: -1.41%
CN[C@@H]1Cc2cccc3[nH]c(=O)n(c23)C1,Potency,[1],"inconclusive: 26.4 µM [inhibitor, single point]"
CC(=O)N1N=C(c2ccc(N)cc2)c2cc3c(cc2C[C@H]1C)OCO3,max response,[1],inactive: -4.11%
CC1=C[C@H]2O[C@@H]3[C@H](O)[C@@H](O)[C@](C)([C@@]2(CO)C[C@@H]1O)[C@]31CO1,Potency,[1],active: 7.31 µM
C=CC(C)(C)C12C=C(O)C(=O)N3/C(=C\c4cnc[nH]4)C(=O)NC31N(OC)c1ccccc12 (stereo not given),Potency,[1],"inconclusive: 8.93 µM [inhibitor, single point]"
CC[C@H](O)[C@@H](C)[C@H]1O[C@@H]1C[C@H](C)/C=C/C=C(\C)[C@H]1OC(=O)C[C@H](O)CC[C@@](C)(O)[C@@H](OC(C)=O)/C=C/[C@@H]1C,Potency,[1],"inconclusive: 0.0046 µM [inhibitor, full curve, poor fit]"
CC=C(C)C(=O)O[C@H]1C(C)=C2[C@@H]3OC(=O)[C@@](C)(O)[C@@]3(O)[C@@H](OC(=O)CCC)C[C@](C)(OC(C)=O)[C@@H]2[C@@H]1OC(=O)CCCCCCC,Potency,[1],active: 8.33 µM
CC(N[C@H]1C[C@H]1c1ccccc1)c1ccc2c(c1)OCCO2 (stereo not given in full),Potency,[1],"inconclusive: 0.291 µM [inhibitor, full curve, poor fit]"
CCN(CC)C(=O)c1ccc(C2=CC3(CCNCC3)Oc3cccc(O)c32)cc1,max response,[1],inactive: -0.307%
same,outcome,[1],inactive
C[C@H]1O[C@@H](O[C@H]2CC[C@]3(CO)C4CC[C@]5(C)[C@@H](C6=CC(=O)OC6)CC[C@]5(O)[C@@H]4CC[C@H]3C2)[C@H](O)[C@H](O)[C@@H]1O[C@@H]1O[C@H](CO)[C@@H](O)[C@H](O)[C@H]1O (stereo not given in full),Potency,[1],active: 5.44 µM
same,Potency,[2],active: 1.93 µM
C[C@]12CC[C@H](O)C[C@@H]1CC[C@@H]1[C@@H]2CC[C@]2(C)[C@@H](C3=CC(=O)OC3)CC[C@]12O,Potency,[1],"inconclusive: 20.2 µM [inhibitor, single point]"
same,Potency,[2],"inconclusive: 10.1 µM [inhibitor, single point]"
COC1CC(O[C@H]2CC[C@]3(C=O)C4CC[C@]5(C)[C@@H](C6=CC(=O)OC6)CC[C@]5(O)[C@@H]4CC[C@]3(O)C2)OC(C)C1O[C@@H]1O[C@H](CO)[C@@H](O)[C@H](O)[C@H]1O (stereo not given in full),Potency,[1],active: 1.53 µM
same,Potency,[2],active: 0.273 µM
O=C(Oc1ccc([N+](=O)[O-])cc1)N1CCC(C(O)(c2ccc3c(c2)OCO3)c2ccc3c(c2)OCO3)CC1,max response,[1],inactive: -5.43%
same,outcome,[1],inactive
same,Potency,[3],"inconclusive: 37.2 µM [inhibitor, single point]"
CN(C)CCc1ccc(O)cc1,max response,[1],inactive: 3.93%
same,outcome,[1],inactive
same,Potency,[4],"inconclusive: 12.6 µM [inhibitor, single point]"
N#C[C@H](O[C@@H]1O[C@H](CO[C@@H]2O[C@H](CO)[C@H](O)[C@H](O)[C@H]2O)[C@H](O)[C@H](O)[C@H]1O)c1ccccc1,Potency,[1],"inconclusive: 37.2 µM [inhibitor, single point]"
same,Potency,[2],"inconclusive: 23.5 µM [inhibitor, single point]"
same,Potency,[3],"inconclusive: 26.4 µM [inhibitor, single point]"
C=C(C)[C@@]12O[C@@H]1[C@@]1(C)C(=CC2=O)CC[C@@H](OC(C)=O)[C@@H]1C,Potency,[1],"inconclusive: 23.1 µM [inhibitor, single point]"
Clc1ccc(CCC(Cn2ccnc2)Sc2c(Cl)cccc2Cl)cc1 (stereo not given),max response,[1],inconclusive: -33.2% [inhibitor]
same,Potency,[2],"inconclusive: 20.9 µM [inhibitor, single point]"
CC[C@H]1/C=C\C=C/C[C@@H](C)[C@H](O)[C@@](C)(O)C(=O)[C@@H](C)[C@H](O)[C@@H](C)C(=O)[C@@H](C)[C@H](O)[C@@H](C)/C=C\C(=O)O[C@@H]2[C@H](C)[C@H](CC1)O[C@]1(CC[C@H](C)[C@H](C[C@@H](C)O)O1)[C@H]2C,Potency,[1],"inconclusive: 29.1 µM [inhibitor, partial curve, poor fit]"
same,Potency,[2],"inconclusive: 0.0052 µM [inhibitor, full curve, poor fit]"
same,Potency,[3],"inconclusive: 0.0103 µM [inhibitor, full curve, poor fit]"
COC1CC(OC2CCC3(C=O)C(CCC4C3CCC3(C)C(C5=CC(=O)OC5)CCC43O)C2)OC(C)C1OC1OC(CO)C(O)C(O)C1O (stereo not given),Potency,[1],active: 0.685 µM
same,Potency,[2],active: 0.343 µM
